Reference: PubChem BioAssay AID1240 (Sanford-Burnham Center for Chemical Genomics, 2008)
Screen size: about 50,000 compounds; about 800 (1.6%) showed an effect of 50% or more. This is one part of the list.

target: Bcl-2-like protein 10 (Homo sapiens) (UniProt Q9HD36); assay: Phenotype converters, Bcl-B/TR3 peptide binding displacement, primary biochemical FP (AID 1240); details: GST-Bcl-B / FITC-TR3 peptide fluorescence polarization; stronger effect = higher value; compound at 3.75 mg/L;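 note: 0% = Bcl-B with tracer peptide and DMSO and 100% = tracer peptide lacking Bcl-B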
UniProt Q9HD36, sequence (Q9HD36 whole entry, looked up): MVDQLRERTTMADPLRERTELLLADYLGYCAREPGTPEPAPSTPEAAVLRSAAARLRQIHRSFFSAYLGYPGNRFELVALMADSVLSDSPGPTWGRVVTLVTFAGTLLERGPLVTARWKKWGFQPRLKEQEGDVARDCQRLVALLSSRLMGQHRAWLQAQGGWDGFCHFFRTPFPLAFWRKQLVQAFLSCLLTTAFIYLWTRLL

| Compound | displacement [%] |
| --- | --- |
| Cc1ccc(/C=C/C(=O)Nc2nc3ccc(S(C)(=O)=O)cc3s2)cc1 | -4.4 |
| CCOc1ccccc1-c1cc(C(=O)O)c2ccccc2n1 | -5.1 |
| COc1ccc(/C=C2\SC(=S)N(CCCC(=O)Nc3cccc(C(=O)O)c3)C2=O)cc1 | 5.1 |
| CCOc1ccc(-c2cc(C(=O)O)c3ccccc3n2)cc1OCC | -2.4 |
| COC(=O)c1ccc(C2CC(=O)Nc3c2cc(Br)c2ccccc32)cc1 (stereo unspecified) | -1.4 |
| CC(C)OC(=O)c1c(NC(=O)C2C3CCC(C3)C2C(=O)O)sc2c1CCCC2 (stereo unspecified) | -9 |
| COc1ccc(CCNC(=O)C(=O)Nc2ccccc2C)cc1 | 10 |
| Cc1cccc(NC(=O)C(=O)NCc2ccc3c(c2)OCO3)c1C | 5.6 |
| COc1ccc(N(CC(=O)N2CCCC2)S(=O)(=O)c2ccc(NC(C)=O)cc2)cc1 | -1.3 |
| Cc1ccc(NC(=O)CC2CCCCC2)cc1 | -6.4 |
| COc1cc(Cl)cc(/C=N/NC2=NS(=O)(=O)c3ccccc32)c1O | -0.8 |
| CCOC(=O)c1c(NC(=O)c2cccnc2)sc2c1CCC2 | 3.1 |
| C/C(=N\Nc1cccc2cccnc12)c1cc([N+](=O)[O-])cs1 | -3.6 |
| O=C(Cc1ccccc1)NNC(=O)c1ccccc1C(=O)O | -4.8 |
| CN1CCc2c(sc3c2C(=O)NC(c2ccc(Cl)s2)N3)C1 (stereo unspecified) | 4 |
| Cc1ccnc(NC(=O)C(c2ccccc2)c2ccccc2)c1 | -8.9 |
| COc1ccc(-n2nc3cc(C)c(NC(=O)c4cccc(OC)c4)cc3n2)cc1 | 3.5 |
| CC(C)c1ccc(N(CC(=O)N/N=C/c2cc(Cl)cc(Cl)c2O)S(=O)(=O)c2ccccc2)cc1 | 16.5 |
| COc1ccc(NC(=O)c2ccc(OC3CSC3)cc2)cc1 | -1 |
| CCC(C)NC(=O)CN(c1ccc(F)cc1)S(=O)(=O)c1ccccc1 (stereo unspecified) | 4.5 |
| NC(=O)c1ccc(NS(=O)(=O)c2ccc(F)cc2)cc1 | 2.7 |
| O=C(Cc1ccccc1)Nc1ccc(NC(=O)c2ccco2)cc1 | -1.3 |
| O=[N+]([O-])c1cc2c(cc1C1NN=C(c3ccccc3)S1)OCO2 (stereo unspecified) | 9.8 |

| Compound | displacement [%] |
| --- | --- |
| CC1(C)Cc2ccccc2-c2nc(NN)n(Cc3ccccc3)c(=O)c21 | 5.7 |
| COc1ccc(N(C(C)C(=O)N/N=C/c2cccnc2)S(C)(=O)=O)cc1 (stereo unspecified) | 8 |
| COc1cc(/C=C2\SC(=Nc3ccc(C)c(Cl)c3)NC2=O)ccc1O | -111 |
| O=C(NCC(O)c1ccccc1)C(=O)Nc1ccccc1 (stereo unspecified) | -4 |
| O=[N+]([O-])c1ccc(OCCCCNCCO)cc1 | 6.5 |
| O=C(Nc1ccccc1F)c1ccccc1[N+](=O)[O-] | 17.3 |
| CCOC(=O)c1c(-c2ccc(C)cc2)csc1NC(=O)C(C)(C)C | 7.5 |
| O=C(CCNc1ccc(-c2ccccc2)cc1)c1ccc(Br)cc1 | -13 |
| Cc1ccc([N+](=O)[O-])cc1N1C(=O)C=CC1=O | 17.3 |
| COc1ccc(C(N)=O)cc1NC(=O)c1cccc(F)c1 | 10.9 |
| CC1=C(C(=O)Nc2ccccc2)C(c2ccc(C)cc2)NC(=S)N1 (stereo unspecified) | -3.6 |
| COc1cc(/C=C2/SC(=S)NC2=O)ccc1OCCOCCOc1ccc(C)cc1 | 6.9 |
| COc1ccc(CSc2nnnn2C)cc1 | 0.6 |
| COc1ccc(-c2noc(-c3cccc(OC)c3)n2)cc1 | 11.5 |
| O=C(O)CCCN1C(=O)/C(=C\c2ccco2)SC1=S | 12.2 |
| CC(=O)Nc1ccc(S(=O)(=O)Nc2ccccc2C(=O)Nc2ccccc2)cc1 | -9.4 |
| COc1ccc(C(=O)NC(c2ccc(OC)cc2)c2ccc(OC)cc2)cc1 | -12.4 |
| COc1ccc(-c2csc(NC(=O)c3ccc(S(=O)(=O)N4CCCC4)cc3)n2)cc1C | -11.5 |
| CC(C)c1cc(Nc2cccc(O)c2)cc(C(C)C)c1O | 3.5 |
| CC1=C(C(=O)OCc2ccccc2)C(c2ccc(C)s2)C2=C(CCCC2=O)N1 (stereo unspecified) | 0.3 |
| COc1cc2c(cc1OC)CC1(CCCC1)N=C2 | 8.6 |
| Cc1ccc(NC(=O)/C=C/c2ccccc2)cc1F | 8.7 |
| O=C(COc1ccc(Cl)cc1)Nc1ccc(F)c([N+](=O)[O-])c1 | 6 |

| Compound | displacement [%] |
| --- | --- |
| Cc1ccc(-c2nn(-c3cc(N4CCCC4)ccc3[N+](=O)[O-])c(=O)c3ccccc23)c(C)c1 | 2.1 |
| COc1cccc(N2C(=O)C(=O)/C(=C(\O)c3ccccc3)C2c2ccc(OC)c(OC)c2)c1 (stereo unspecified) | 6.8 |
| COc1ccc2c(c1)-c1c(ssc1=S)C(C)(C)N2C(=O)CSc1nncn1C | 10.6 |
| O=C(Nc1ccccc1[N+](=O)[O-])c1ccc(=O)oc1 | -0.6 |
| CCOC(=O)C(=C/C=C1/Sc2ccccc2N1C)C(=O)OCC | 131 |
| Cc1ccc(NC(=O)c2ccc(Cl)cc2Cl)c(C)c1 | -1.3 |
| COc1cccc(N2C(=O)C(=O)/C(=C(\O)c3ccccc3)C2c2ccc(C)cc2)c1 (stereo unspecified) | -0.7 |
| COc1cc(SC)ccc1C(=O)N1CCc2ccccc21 | 2.9 |
| CCN1C(=O)C(C23CC4CC(CC(C4)C2)C3)NC1=S (stereo unspecified) | -0.4 |
| Nc1nnc(SCC(=O)Nc2ccccc2Oc2ccccc2)s1 | -12.7 |
| COc1cc(NC(=O)CCc2ccccc2)c(OC)cc1Cl | -6.7 |
| Cc1cc(C)cc(OCCCCN2CCCCC2)c1 | 0.7 |
| Cc1cc(C)nc(N2CCN(C(=O)c3cccc(Br)c3)CC2)n1 | 7.8 |
| O=[N+]([O-])c1cccc(C2Nc3c(cccc3[N+](=O)[O-])C3C=CCC32)c1 (stereo unspecified) | 21.3 |
| O=C(O)C1CC=CCC1C(=O)Nc1ccc(F)c(F)c1 (stereo unspecified) | -1.2 |
| CCOC(=O)C1C(=O)CC(C)(O)C(C(=O)OCC)C1c1cccc(Cl)c1 (stereo unspecified) | -8.7 |
| Cc1ccc(/C=C2\SC(=S)N(c3ccc(C)c(C)c3)C2=O)o1 | 14.9 |
| COc1ccc(-n2nc3cc(C)c(NC(=O)Cc4ccccc4)cc3n2)cc1 | 3.9 |
| CCOC(=O)c1ccc(NC(=O)CCN2C(=O)S/C(=C\c3ccccc3OC)C2=O)cc1 | 6.3 |
| NC(=O)c1ccc(NC(=O)COc2ccc3ccccc3c2)cc1 | -5.3 |
| CCOC(=O)C1=C(C)NC(=O)CC1c1cc2c(cc1[N+](=O)[O-])OCO2 (stereo unspecified) | 2.2 |
| O=C(NNS(=O)(=O)c1ccc2ccccc2c1)c1ccccc1F | -15.1 |
| CC1CCc2c(sc(NC(=O)c3cccc(C(=O)O)c3)c2C(N)=O)C1 (stereo unspecified) | -0.7 |

| Compound | displacement [%] |
| --- | --- |
| CCN(CC)CC(=O)c1ccc(-c2ccccc2)cc1 | 7.4 |
| O=C(NC(=S)Nc1ccc(Cc2ccncc2)cc1)c1ccc(Cl)cc1 | 0.3 |
| CCC(C(=O)Nc1cc(C(=O)OC)ccc1C(=O)OC)c1ccccc1 (stereo unspecified) | 5 |
| CCSC1(CCC(=O)OC)C(C)=C(C)C(=O)N1Cc1ccccc1 (stereo unspecified) | 0.4 |
| CCc1c(O)nc(SCC(=O)N2CCCCC2)[nH]c1=O | -7.3 |
| CCc1ccc(-n2c(C)cc(/C=N/NC(=O)c3cccnc3)c2C)cc1 | -20.8 |
| CCCCc1sc(-c2c(C#N)c(N)nc3c2CCCCC3)cc1[N+](=O)[O-] | -12.1 |
| Cn1c(=O)cc2c3c(c(Oc4ccccc4)ccc31)C(=O)c1ccccc1-2 | 108 |
| COc1ccccc1N(CC(=O)Nc1c(C)cccc1C)S(=O)(=O)c1ccccc1 | 5.1 |
| O=C1NC2=Nc3ccccc3NC(c3ccccc3)=C2C(c2ccc(OC(F)F)cc2)N1 (stereo unspecified) | 13.6 |
| Fc1cccc(Cl)c1CSc1nnc(-c2ccccc2)o1 | -5.5 |
| O=C(C1CCCC1)N1CCN(c2ccc(F)cc2)CC1 | -0.9 |
| CC(C)Cc1ccc(C(C)C(=O)N2CCOCC2)cc1 (stereo unspecified) | 8.1 |
| COc1ccc(/C=C(\NC(=O)c2ccc(Cl)cc2)C(=O)NCc2cccnc2)cc1OC | 10.8 |
| O=C(O)CC(NS(=O)(=O)c1cc(Cl)ccc1Cl)c1ccccc1 (stereo unspecified) | 14.6 |
| O=C(COc1ccc(Cl)cc1)NNC(=O)c1ccc([N+](=O)[O-])cc1Cl | -5.9 |
| O=C(Nc1ccccc1-c1nc2ccccc2s1)c1cccc(Cl)c1 | 9.2 |
| C=C(C)c1cccc(C(C)(C)NC(=O)NCc2ccccn2)c1 | 6.3 |
| N#CC1=C(N)Oc2cc(N)ccc2C1C1CC=CCC1 (stereo unspecified) | -3.9 |
| O=C(N/N=C/c1ccccc1F)c1ccccc1I | 18 |
| Cc1cccc(N2CCN(C(=S)c3ccc(-c4ccc(Cl)cc4Cl)o3)CC2)c1 | 17.6 |
| O=C(/C=C/c1ccccc1)c1cccc(N2C(=O)C3C4C=CC(C4)C3C2=O)c1 (stereo unspecified) | 10.2 |
| C=C(C)COc1ccccc1/C=C1\N=C(c2cccs2)OC1=O | 0.7 |

| Compound | displacement [%] |
| --- | --- |
| O=C1NC(=O)N(c2ccccc2)C(=O)/C1=C\c1ccccc1OCc1ccccc1F | 15.5 |
| Cc1cc(C)n(C2CC(=O)N(c3ccccc3)C2=O)n1 (stereo unspecified) | 0.8 |
| COc1cccc(CN2CCN(Cc3ccncc3)CC2)c1 | -19.8 |
| Clc1ccc(N2CCN(/N=C\C=C\c3ccccc3)CC2)cc1 | -4.7 |
| CC12CCC3C(CCC4CCCCC43C)C1CC/C2=N\O (stereo unspecified) | -6 |
| C=CCNC(=O)C1CC1(c1ccc(C)cc1)c1ccc(C)cc1 (stereo unspecified) | -1.2 |
| CCC(=O)NC(=Nc1nc(OC)c2cc(C)ccc2n1)NC(=O)CC | 0.4 |
| CC1=C(C(=O)Nc2ccccc2C)C(c2ccccc2Cl)C(C#N)=C(SCC(N)=O)N1 (stereo unspecified) | -7.4 |
| COc1cccc(OCCOc2ccccc2/C=C2/SC(=S)N(Cc3ccccc3)C2=O)c1 | -6.7 |
| O=C(NC(=S)Nc1cccc(C(F)(F)F)c1)c1ccco1 | 6.8 |
| NS(=O)(=O)c1ccc2c(c1)C(=O)c1cc(S(N)(=O)=O)ccc1-2 | -5.7 |
| O=C(N=Nc1c(O)[nH]c2ccccc12)C12CC3CC(CC(C3)C1)C2 | -11.3 |
| CC(=N/O)/C(C)=N\NS(=O)(=O)c1ccc(C)cc1 | 15 |
| CN(C)/C=C1\C=C2C(=O)c3ccccc3N2C1=O | 162 |
| CC1=C(C(=O)OC(C)C)C(c2ccc(Cl)c(Cl)c2)N2C(=O)CCSC2=N1 (stereo unspecified) | 15.3 |
| O=C1N=c2ccc(Br)cc2=C1c1[nH]c(=O)[nH]c1O | 4.8 |
| CN(C)CCNc1ccc(Cl)cc1[N+](=O)[O-] | 13.5 |
| COc1cc(/C=C2/SC(=S)NC2=O)c([N+](=O)[O-])cc1OC | 35.7 |
| CCOC(=O)C(=O)C1C(=O)C(=O)C(C)C1=O (stereo unspecified) | 14.6 |
